Assay results: PubChem BioAssay AID504339 (National Center for Advancing Translational Sciences (NCATS), 2011)
About 17,000 (4.4%) of roughly 390,000 compounds were called active. The inconclusive results got no clear call from the source; some entries with a clear call stand among them for comparison. The call rests on the fitted dose curve; in most records, active means well fitted inhibition curve with a large enough effect; inconclusive means small, poorly fitted or top-dose-only effect; inactive means no such curve, though single readings can be large or run the other way. A potency beside an inconclusive call is a rough fit, not a confirmed value.

These molecules were tested against Lysine-specific demethylase 4A (Homo sapiens) (UniProt O75164) (assay: qHTS Assay for Inhibitors of JMJD2A-Tudor Domain). Conditions: AlphaScreen JMJD2A-Tudor / H3K4me3 peptide binding; series mostly up to 114 µM.
Further: nearly all actives have a fitted effect of over 50% in size.
Potency means the concentration at half of the fitted maximal effect; tags describe the fitted curve by direction and shape.

UniProt O75164, sequence (O75164 whole entry, looked up, the tested form may be a part): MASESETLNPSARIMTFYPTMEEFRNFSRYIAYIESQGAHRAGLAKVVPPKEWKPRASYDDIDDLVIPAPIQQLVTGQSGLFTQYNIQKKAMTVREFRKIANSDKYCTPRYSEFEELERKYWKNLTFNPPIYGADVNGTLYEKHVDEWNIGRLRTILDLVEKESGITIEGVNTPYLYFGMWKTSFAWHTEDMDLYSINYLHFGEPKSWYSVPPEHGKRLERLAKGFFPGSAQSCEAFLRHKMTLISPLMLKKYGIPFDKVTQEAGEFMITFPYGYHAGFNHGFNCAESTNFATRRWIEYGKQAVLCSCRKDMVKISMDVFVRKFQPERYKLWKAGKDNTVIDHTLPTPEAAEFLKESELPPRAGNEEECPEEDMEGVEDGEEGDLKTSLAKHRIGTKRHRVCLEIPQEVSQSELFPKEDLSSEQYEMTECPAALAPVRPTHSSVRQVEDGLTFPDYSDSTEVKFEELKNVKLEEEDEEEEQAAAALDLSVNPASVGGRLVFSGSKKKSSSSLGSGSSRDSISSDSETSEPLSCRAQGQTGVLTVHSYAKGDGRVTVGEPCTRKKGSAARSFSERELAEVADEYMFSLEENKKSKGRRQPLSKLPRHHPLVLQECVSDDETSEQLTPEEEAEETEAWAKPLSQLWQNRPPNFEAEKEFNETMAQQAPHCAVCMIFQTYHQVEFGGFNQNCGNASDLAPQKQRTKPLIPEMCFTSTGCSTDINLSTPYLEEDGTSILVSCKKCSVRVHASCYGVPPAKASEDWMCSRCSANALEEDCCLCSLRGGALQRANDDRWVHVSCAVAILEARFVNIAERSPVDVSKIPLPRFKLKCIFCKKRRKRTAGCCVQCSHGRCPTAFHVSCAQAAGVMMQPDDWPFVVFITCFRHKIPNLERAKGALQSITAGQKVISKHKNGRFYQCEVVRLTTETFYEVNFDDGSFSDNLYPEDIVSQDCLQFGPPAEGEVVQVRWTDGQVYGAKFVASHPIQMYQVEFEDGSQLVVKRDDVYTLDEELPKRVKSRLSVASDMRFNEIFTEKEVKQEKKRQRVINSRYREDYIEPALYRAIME

Potency, inactive:
C=C(C)CC(c1ccccc1)N(C(C)=O)c1ccco1 (configuration not stated)
O=Cc1ccc(-c2cc(Cl)ccc2Cl)[nH]1
O=C(O)c1cccc(S(=O)(=O)Nc2ccc3c(c2)CCC3)c1
O=C(OCCN1CCCCC1)c1ccccc1Cl
COc1cccc(-n2c(SCc3cccc(C)c3)nc3c([nH]c4ccccc43)c2=O)c1
O=C(Nc1ccc(Cl)cc1)C(NS(=O)(=O)c1cccs1)c1ccccc1 (configuration not stated)
COc1cccc(N2CCN(Cc3ncc(-c4ccccc4)o3)CC2)c1
O=C(Nc1ccc(Br)cc1)c1cc([N+](=O)[O-])cc([N+](=O)[O-])c1
COc1ccc(S(=O)(=O)N2CC(O)C[C@H]2C(=O)OCC(=O)N2CCCCCC2)cc1 (some centres not stated)
CCOC(=O)C1CCCN(Cc2cn3c(-c4cccc(Br)c4)nnc3s2)C1 (configuration not stated)
CCOc1ccc(N(Cc2ccccc2)C(=O)c2nc(S(C)(=O)=O)ncc2Cl)cc1
Cc1cc(C)nc(N2CCCC(C(=O)Nc3cccc(Cl)c3)C2)n1 (configuration not stated)
O=C(CSc1nc2ccccc2[nH]1)c1ccccc1F
O=C(Nc1ccc(-c2nc3cc(Cl)ccc3o2)cc1)c1cc2ccccc2o1
CCC1(C)Cc2c(sc3nc(SC)n(-c4ccc(C)cc4)c(=O)c23)CO1 (configuration not stated)
CCOn1c(=O)c(-c2cccs2)[n+]([O-])c2ccccc21
Cc1cc(C)n(-c2nc3ccccc3nc2N2CCN(c3cccc(C(F)(F)F)c3)CC2)n1
Oc1cc(Br)ccc1C=Nc1ccc(N2CCCCC2)cc1
CSc1nn(Cc2ccc(C)cc2)c(N)c1S(=O)(=O)c1ccccc1
COc1cc2c(cc1OC)CN(C(=O)CCNS(=O)(=O)c1ccccc1F)CC2

Potency, active:
CCOc1ccc2nc(Cl)c(C3CC(c4ccc(C)cc4)=NN3C(=O)CCC(=O)O)cc2c1 (configuration not stated) 79.4 µM
COc1cc(S(=O)(=O)NCCc2c(C)[nH]c3ccc(C)cc23)ccc1Br 50.1 µM
CC(Nc1ccc(F)cc1)=[N+](C)CCNS(=O)(=O)c1ccc(Cl)cc1 20 µM
c1ccc(-c2nnc3n2NC(c2ccc4c(c2)OCO4)S3)cc1 (configuration not stated) 22.4 µM
O=C(O)CCCn1c(=S)[nH]c2c(sc3ccc([N+](=O)[O-])cc32)c1=O 17.8 µM
O=C1C(O)=CC(=C(c2ccccc2)c2ccccc2)c2ccccc21 14.1 µM
COc1cc(/C=C2\SC(=O)NC2=O)ccc1Oc1ccc([N+](=O)[O-])cc1[N+](=O)[O-] 35.5 µM
O=C(O)CCCNc1cc(N2CCN(C(=O)c3ccco3)CC2)c2noc3c2c1C(=O)c1ccccc1-3 35.5 µM
O=c1c(O)cccc2cc(O)c(O)c(O)c12 0.891 µM
Cc1n[nH]c(=S)n(NC(=O)CC(=O)Nn2c(=S)[nH]nc(C)c2=O)c1=O 79.4 µM
Cc1ccc(S(=O)(=O)NC(=O)NN2CC3CCCC3C2)cc1 (configuration not stated) 89.1 µM
COCCNC(=O)Nc1ccc2nc(-c3ccco3)c(-c3ccco3)nc2c1 20 µM
CC(=O)NC(CC(=O)OCC(=O)c1c(N)n(C)c(=O)n(C)c1=O)c1ccccc1 (configuration not stated) 12.6 µM

Potency, inconclusive:
Clc1cccc(CNc2nc(-c3cccnc3)nc3ccccc23)c1 79.4 µM [inhibitor, partial curve]
Cc1cccc(N2CCN(C(=O)C3CCN(C(=O)c4cc5sccc5n4C)CC3)CC2C)c1 (configuration not stated) 56.2 µM [inhibitor, partial curve]
CSc1ccc(S(=O)(=O)NCC(=O)OCC(=O)NC2(C#N)CCCCC2)cc1[N+](=O)[O-] 20 µM [inhibitor, partial curve]
O=[N+]([O-])c1ccccc1CNc1ccc(F)c(Cl)c1 70.8 µM [inhibitor, single point]
c1csc(-c2nc(N3CCN(Cc4ccc5c(c4)OCCO5)CC3)c3ccccc3n2)c1 56.2 µM [inhibitor, partial curve]
Cc1ccccc1N=Nc1c(N)n[nH]c1N 44.7 µM [inhibitor, partial curve]
O=C(NCCCN1CCN(c2ccccc2)CC1)c1sc2ncccc2c1-n1cccc1 50.1 µM [inhibitor, partial curve]
CCOC(=O)c1nc2sc(C)c(C)c2c(=O)[nH]1 100 µM [inhibitor, single point]
O=C(NCCc1cccs1)C12CN(Cc3ccccc3)CC1C(c1cccc([N+](=O)[O-])c1)=NO2 (configuration not stated) 15.8 µM [inhibitor, full curve, poor fit]
Nc1nc(SCC(=O)NCC2CCCO2)[nH]c(=O)c1NC(=O)c1ccco1 (configuration not stated) 100 µM [inhibitor, partial curve, poor fit]
COc1ccccc1NC(=O)c1cc2ccc(O)cc2o/c1=N\O 79.4 µM [inhibitor, single point]
O=C(N/N=C/c1cc(Br)cc(Cl)c1O)c1ccc2c(c1)OCO2 56.2 µM [inhibitor, partial curve]
O=[N+]([O-])c1cc(Cl)cc(/C=N/NC(=S)Nc2cc(S(=O)(=O)N3CCOCC3)ccc2Cl)c1O 10 µM [inhibitor, partial curve]
COC(=O)c1ccc(NC(=O)CCN2CCCCC2)cc1 100 µM [inhibitor, partial curve]
COc1ccc(OC)c(S(=O)(=O)Nc2ccc(O)c3ccccc23)c1 12.6 µM [inhibitor, full curve]
Cc1cccc(NS(=O)(=O)c2cccc(C(=O)N3CCN(C/C=C/c4ccccc4)CC3)c2)c1 44.7 µM [inhibitor, partial curve]
Cc1ccc(OCc2ccc([N+](=O)[O-])cc2)c([N+](=O)[O-])n1 56.2 µM [inhibitor, partial curve]
COc1ccc(OC)c(NC(=O)Cn2c(=O)cc(-c3ccccc3)c3c(C)nn(C)c32)c1 44.7 µM [inhibitor, partial curve]
Cc1nnc(NC(=O)CSc2nnc3scc(-c4ccc(C)c(C)c4)n23)s1 89.1 µM [inhibitor, single point]
O=C1c2cccnc2C(=O)N1c1cccc([N+](=O)[O-])c1 10 µM [inhibitor, single point]
Cc1cccc2c3c([nH]c12)CCNC3 15.8 µM [inhibitor, partial curve]
COc1ccc(Nc2sc(C(=O)c3ccc(Cl)cc3)c(N)c2C(=O)Nc2ccccc2OC)cc1 56.2 µM [inhibitor, partial curve]
CCCCCc1cc(=O)oc2c(C(CCN3CCCC(C)C3)c3ccc4c(c3)OCO4)c(OC)cc(OC)c12 (configuration not stated) 44.7 µM [inhibitor, partial curve]
C=CCn1c(CC#N)nnc1N1CCOCC1 20 µM [inhibitor, full curve]
O=C(c1cc2cc(Cl)ccc2[nH]1)N1CCN(c2ccccn2)CC1 31.6 µM [inhibitor, single point]
O=[N+]([O-])c1ccc(NC(=S)NCCc2ccc(Cl)cc2)cc1 39.8 µM [inhibitor, full curve]
Cc1cc(C)c(CN2CCC(N3CCC(C(=O)NCC4CCCO4)CC3)CC2)cc1C (configuration not stated) 22.4 µM [inhibitor, single point]
CC(=O)N(Cc1cc(=O)[nH]c2ccccc12)c1ccccc1C 89.1 µM [inhibitor, single point]
O=C(CSc1nc(-c2ccccc2)c(-c2ccccc2)[nH]1)NCCN1C(=O)CSC1=O 56.2 µM [inhibitor, partial curve]
Clc1ccccc1Cn1c(/C=C/c2ccco2)nc2ccccc21 70.8 µM [inhibitor, single point]
Cc1ccc(C(C)C)c(OCC(O)CN2CCN(CCO)CC2)c1 (configuration not stated) 89.1 µM [inhibitor, partial curve]
O=C(Cc1ccc(-n2cccc2)cc1)N1CCc2ccccc21 56.2 µM [inhibitor, partial curve]
Cc1cc(C2N=C(N)Nc3nc4ccccc4n32)c(C)n1-c1ccccc1Cl (configuration not stated) 50.1 µM [inhibitor, partial curve]
CCC(=O)/C=C1/Sc2ccc(OC)cc2N1CCO 12.6 µM [inhibitor, full curve]
Cc1oc2c(Cl)c(Cl)c(O)c(CN(C)C)c2c1C(=O)c1ccc(Cl)cc1 44.7 µM [inhibitor, partial curve]
O=C(CCCn1c(=O)c2cccn2c2ccccc21)NCCc1ccc(Cl)cc1 22.4 µM [inhibitor, full curve, poor fit]
O=C(CCCCl)OCc1cn(-c2ccc(Cl)cc2)nn1 44.7 µM [inhibitor, partial curve]
Cc1nc(NC(=O)c2ccccc2)sc1-c1csc(NCCc2ccccc2)n1 22.4 µM [inhibitor, full curve]
COc1ccc(N2CCN(CC(=O)Nc3ccc(C)cc3Br)CC2)cc1 63.1 µM [inhibitor, partial curve, poor fit]
